The record followed here is PMC4336329 (PLoS ONE, 2015).

Screen size: about 310,000 compounds; about 2,200 (0.71%) showed an effect of 50% or more. Effects have a minus sign here. Some of the results follow.

Sequence of human ether-à-go-go-related gene (hERG) potassium channel (Q12809 whole entry, looked up): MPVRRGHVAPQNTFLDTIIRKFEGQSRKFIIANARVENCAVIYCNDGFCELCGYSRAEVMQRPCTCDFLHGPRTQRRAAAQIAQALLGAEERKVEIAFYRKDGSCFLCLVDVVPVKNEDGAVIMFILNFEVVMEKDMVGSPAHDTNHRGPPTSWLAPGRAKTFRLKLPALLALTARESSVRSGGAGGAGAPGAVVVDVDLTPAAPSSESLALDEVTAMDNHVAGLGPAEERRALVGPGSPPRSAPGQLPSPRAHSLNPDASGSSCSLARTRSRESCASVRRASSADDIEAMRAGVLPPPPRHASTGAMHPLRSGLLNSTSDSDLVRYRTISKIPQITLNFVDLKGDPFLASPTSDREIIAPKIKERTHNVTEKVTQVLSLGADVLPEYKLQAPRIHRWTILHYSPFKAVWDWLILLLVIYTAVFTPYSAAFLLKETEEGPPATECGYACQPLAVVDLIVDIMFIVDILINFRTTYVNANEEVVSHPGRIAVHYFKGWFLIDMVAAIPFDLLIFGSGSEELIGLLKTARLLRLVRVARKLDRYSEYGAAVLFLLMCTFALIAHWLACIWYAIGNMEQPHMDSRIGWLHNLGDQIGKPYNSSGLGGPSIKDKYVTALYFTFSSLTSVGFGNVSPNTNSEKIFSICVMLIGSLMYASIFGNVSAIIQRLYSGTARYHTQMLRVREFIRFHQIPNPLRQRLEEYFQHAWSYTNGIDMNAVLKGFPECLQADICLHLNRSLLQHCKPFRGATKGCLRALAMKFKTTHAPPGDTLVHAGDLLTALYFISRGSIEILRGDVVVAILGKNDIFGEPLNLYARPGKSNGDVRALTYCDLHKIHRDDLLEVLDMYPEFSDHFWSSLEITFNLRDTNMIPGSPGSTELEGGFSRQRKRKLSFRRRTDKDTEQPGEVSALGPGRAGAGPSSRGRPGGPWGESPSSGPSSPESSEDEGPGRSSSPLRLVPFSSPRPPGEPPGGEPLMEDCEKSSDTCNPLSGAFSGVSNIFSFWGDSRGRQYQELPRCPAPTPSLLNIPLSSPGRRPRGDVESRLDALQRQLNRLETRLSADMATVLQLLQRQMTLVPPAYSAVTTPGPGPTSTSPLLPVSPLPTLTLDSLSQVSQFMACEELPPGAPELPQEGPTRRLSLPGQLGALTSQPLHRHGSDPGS

The assay has as its target human ether-à-go-go-related gene (hERG) potassium channel (human, UniProt Q12809). The experiment in a line: primary screen, population patch clamp on CHO cells stably expressing hERG.
`CC(C)CC(=O)Nc1nnc(SCC(=O)Nc2ccc(F)cc2)s1`: the “hERG current change (%, negative = inhibition) at 1uM” value is on record as -14.3%. The same measure for `O=C(CNC(=O)c1ccccc1)N=Nc1c(O)[nH]c2ccc(Br)cc12`: 13.7%; for `S=c1nc(C2CC2)n(-c2ccccc2)[nH]1`: 10.1%; for `Cl.c1ccc2c(c1)CCCC2C1=NCCN1` (stereo not shown): -7.58%.

`CCCCn1c(CNC(C)=O)nc2ccccc21`: the “hERG current change (%, negative = inhibition) at 1uM” value worked out at 10.8%.

As for `COc1ccc(/C(C)=N/N=C(N)N)c(O)c1`, the “hERG current change (%, negative = inhibition) at 1uM” value is given as 12.9%. As to `O=C(/C=C/c1ccco1)Nc1ccccc1N1CCCCC1`, the “hERG current change (%, negative = inhibition) at 1uM” value is 16.2%.

For `CCc1noc(C)c1C(=O)Nc1nc(-c2ccc(Cl)cc2Cl)c(C)s1`, the “hERG current change (%, negative = inhibition) at 1uM” value is recorded as 9.04%. The same measure for `CCOP(=O)(OCC)C(Nc1ccc(C)cc1)c1ccco1` (stereo not shown): 6.53%; for `Cc1ccc(CN(C)S(=O)(=O)c2c(C)noc2/C=C/N(C)C)cc1`: 11.9%. Regarding `Cc1ccccc1OCC(=O)Nc1ccc(C(N)=O)cc1`, the “hERG current change (%, negative = inhibition) at 1uM” value turned out to be 0.85%.

On to `CCn1c(SCC(=O)Nc2ccccc2C)nnc1-c1ccccc1O`, for which the “hERG current change (%, negative = inhibition) at 1uM” value stood at 0.947%.

As to `COc1ccc(OC)c(-c2csc(NC(=O)C3=NNC(=O)CC3)n2)c1`, the “hERG current change (%, negative = inhibition) at 1uM” value was determined as 20.6%. With `O=C1CCCC(=O)C1CS(=O)(=O)c1ccccc1` the figure was 14.3%; with `O=C(CN1C(=O)/C(=C\c2ccccc2Cl)Oc2ccccc21)NCc1cccnc1`, 5.85%; with `O=c1cc(CSc2ccccc2)[nH]c(=S)[nH]1`, 11.4%. As to `COc1ccc(S(=O)(=O)NC(C)C(=O)NC2CC2)cc1C` (stereo not shown), the “hERG current change (%, negative = inhibition) at 1uM” value stood at 4.22%. With `COc1ccc(NC(=O)c2cc(S(=O)(=O)N3CCCC3)oc2C)cc1` the figure was 10.6%; with `CCOC(=O)N1CCC(Nc2c([N+](=O)[O-])cc(C(=O)O)cc2[N+](=O)[O-])CC1`, 17%; with `CCC(=O)Nc1ccc(C(=O)Nc2cccc(C)n2)cc1`, 14.4%. With `COc1ccc(N2C(=O)CC(N3CCOCC3)C2=O)cc1` (stereo not shown) the figure was 16.3%; with `CCC1(CC)NC(=O)N(CC(=O)OCC(=O)Nc2ccccc2OC(F)F)C1=O`, 17.8%. The same measure for `O=c1c2ccccc2nc(-c2ccccc2)n1O`: 5.43%. Turning to `O=C(O)C1C2CCC(C2)C1C(=O)NCCc1cccc(Cl)c1` (stereo not shown), the “hERG current change (%, negative = inhibition) at 1uM” value is reported as 14%. With `COCCN1Cc2cccc(C(=O)NCc3ccccn3)c2C1=O` the figure was 10.6%; with `COC(OC)c1ccc(C#N)c(SCc2ccccc2)n1`, 12.4%.

Consider `N#C/C(=C\c1ccc(O)c([N+](=O)[O-])c1)C(=O)NCc1ccccc1`, for which the “hERG current change (%, negative = inhibition) at 1uM” value is 15.6%.

As for `COc1ccccc1N1CCN(C(=O)c2cc(-c3cccs3)on2)CC1`, the “hERG current change (%, negative = inhibition) at 1uM” value is reported as -2.46%. `COc1cc(C2C(C#N)=C(N)N(N(C)C)C3=C2C(=O)CCC3)cc(OC)c1OC` (stereo not shown): the “hERG current change (%, negative = inhibition) at 1uM” value is given as 16%.

In the case of `CCOC(=O)N1CCC(N2C(=O)c3ccccc3C2Nc2ccc(C)cc2)CC1` (stereo not shown), the “hERG current change (%, negative = inhibition) at 1uM” value stood at 2.36%.

`CC(=O)c1cccc(NC(=O)C2CCN(S(=O)(=O)c3c(C)n[nH]c3C)CC2)c1.Cl`: the “hERG current change (%, negative = inhibition) at 1uM” value came to 1.55%.

For `COc1ccccc1CNC(=O)COC(=O)c1ccccn1`, the “hERG current change (%, negative = inhibition) at 1uM” value was 12.6%. With `COC(=O)c1cc(Nc2cc(C)nc3ncnn23)cc(C(=O)OC)c1` the figure was 5.12%. With `CCC(=O)c1ccc(OCC(=O)OC(C)C(=O)NCc2ccc3c(c2)OCO3)cc1` (stereo not shown) the figure was 18.3%; with `O=C(Nc1cccc(F)c1)C1CCCN(c2cnccn2)C1` (stereo not shown), 16.7%; with `COc1ccc(NC(=O)c2cccc(N3C(=O)NC4CC3(C)Oc3ccccc34)c2)cc1` (stereo not shown), 3.52%. The same measure for `CC(C)CCSc1nc2c(c(=O)[nH]c(=O)n2C)n1CCCc1ccccc1`: 12.4%. For the compound `Cc1ccc(OCCC(=O)NNC(=O)c2ccccc2F)cc1`, the “hERG current change (%, negative = inhibition) at 1uM” value turned out to be 4.4%. Regarding `COc1cccc(/C=C2\SC(=O)N(CC(=O)NC3C=CS(=O)(=O)C3)C2=O)c1` (stereo not shown), the “hERG current change (%, negative = inhibition) at 1uM” value is 2.5%. The same measure for `COc1ccc(C(=O)NCCSCc2ccccc2)cc1OC`: 12.1%; for `O=C(NCCc1ccc(F)cc1)c1ccc(S(=O)(=O)N2CCCC2)cc1`: 6.34%; for `Cc1c(F)cccc1NS(=O)(=O)c1ccc(OCCNS(C)(=O)=O)cc1`: 13.8%. The same measure for `COc1ccc(C(=O)Nc2ccnn2C2CCN(CCC(C)c3ccc(C)o3)CC2)cc1` (stereo not shown): -18%. The same measure for `COc1ccccc1NC(=O)C(=O)NNS(=O)(=O)c1ccc2ccccc2c1`: 9.63%; for `COc1ccc(NC(=O)N2CCCCC2c2cccnc2)cc1` (stereo not shown): 6.63%; for `COc1ccc(OC)c(C2/C(=C(/O)c3ccc(C)cc3)C(=O)C(=O)N2Cc2ccco2)c1` (stereo not shown): 13.1%.
